# Laboratory results taken from the supplement of paper PMC10126150.
# Sequences with one replicate were seen in a single cluster, so their values are uncertain.
# Test system: ATP
# Test: switch fluorescence ratio, 500 uM ATP over buffer (Cy3 cluster intensity, sum of 5 cycles each) (fold (ratio)); higher = stronger signal-on switching upon ATP binding; sequences stand for … in TCGTCGGCAGCGTCAGATGTGTATAAGAGACAGTTTTTTTTTTTTTTTTTTTTTTTTT…TC
# Settings: aptamer strand: ATP DNA aptamer (quencher-CACCTGGGGGAGTATTGCGGAGGAAGG + anchor), 100 nM annealed; ATP concentration: 500 uM; one replicate
# In short: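 Imaging in selection buffer was followed by imaging after 15 min with 500 uM ATP at 22 °C, for Cy3-labelled switching-strand clusters annealed to 100 nM quencher-labelled ATP aptamer on a modified Illumina MiSeq flow-cell. Five of these buffer/ATP cycles ran, separated by NaOH stripping and re-annealing. The fluorescence ratio per cluster is summed target-cycle over summed buffer-cycle Cy3 intensity, averaged per switch-domain sequence; clusters outside 100-1000 RFU were removed.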
# 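Also: ATP exposure 15 min at 22 °C before imaging.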
row,Sequence,switch fluorescence ratio
1,GCCTGGTCTC,1.02
2,GCCTGGTGTG,1.13
3,GCCTTAAGTA,1.01
4,GCCTTACACC,1.39
5,GCCTTACTC,2.31
6,GCCTTATGGT,0.975
7,GCCTTGACCA,0.999
8,GCCTTGGCAT,1.01
9,GCCTTGGGTC,0.955
10,GCCTTTATAC,1.42
11,GCCTTTGTTA,0.968
12,GCGAAGAGAA,0.946
13,GCGAATATAC,3.21
14,GCGACCCAGG,2.11
15,GCGACGGACT,1.11
16,GCGACGTCGC,0.999
17,GCGACGTGAA,1.33
18,GCGACTAGG,1.02
19,GCGACTTAGT,0.975
20,GCGAGGAGGG,0.988
21,GCGAGGTGAG,0.992
22,GCGAGGTTGC,1.04
23,GCGATAACGC,0.993
24,GCGATACTTC,4.35
25,GCGATCCGGC,1.07
26,GCGATCCGTG,1.03

row,Sequence,switch fluorescence ratio
1,GCGATCGAAA,1.05
2,GCGATCGTGT,0.996
3,GCGATGGCGG,1.01
4,GCGATGGGAT,1.04
5,GCGATGGGCG,0.989
6,GCGATTTTCA,1
7,GCGCAACATA,1.03
8,GCGCACAAGG,1.02
9,GCGCAGTACA,2.33
10,GCGCATGTTA,1.03
11,GCGCCAGGCT,1.03
12,GCGCCCACGG,0.988
13,GCGCCCCGTG,1.18
14,GCGCCGCCTG,1.06
15,GCGCCGTCAC,1.07
16,GCGCGAGGAA,1.02
17,GCGCGAGTCT,1.01
18,GCGCGCAGCC,1.02
19,GCGCGCCACC,1
20,GCGCTAAGGC,1.07
21,GCGCTAATC,1.83
22,GCGCTAGGC,1.14
23,GCGCTGTGGG,1.03
24,GCGGAAACAG,1
25,GCGGAACATA,0.975
26,GCGGAACTTA,0.974

row,Sequence,switch fluorescence ratio
1,GCGGAGAGCG,0.992
2,GCGGATTGTC,1.02
3,GCGGCACTCG,1.04
4,GCGGCCAAT,1.03
5,GCGGCCAGAG,1.01
6,GCGGCCGATC,1.03
7,GCGGCGATTG,1.04
8,GCGGCGCTGG,0.982
9,GCGGCTAAAT,1.03
10,GCGGCTGCGG,0.973
11,GCGGCTGGCA,1.05
12,GCGGCTTGCT,1.02
13,GCGGGAATGC,1.48
14,GCGGGACTCT,0.987
15,GCGGGCCTAG,1.02
16,GCGGGGAATC,0.99
17,GCGGGGCCGA,1.02
18,GCGGGTCTCT,1.03
19,GCGGGTTAAT,0.955
20,GCGGGTTCAG,1
21,GCGGGTTTG,1.03
22,GCGGTAGGCT,0.989
23,GCGGTATAAA,1.01
24,GCGGTCAAGC,1.02
25,GCGGTGGCGT,0.94
26,GCGGTTAATT,0.987

row,Sequence,switch fluorescence ratio
1,GCGGTTATAC,2.39
2,GCGGTTTATC,1
3,GCGGTTTGTG,0.96
4,GCGTAAAGTA,1
5,GCGTAAGGAA,0.971
6,GCGTAATGCA,1.03
7,GCGTACCAAC,1.1
8,GCGTATATGA,1.02
9,GCGTATGCAG,0.982
10,GCGTATGTAG,0.953
11,GCGTCAGCAA,1.03
12,GCGTCATCTA,0.999
13,GCGTCCCTGC,1.04
14,GCGTGAATAC,5.39
15,GCGTGCCCTA,1.01
16,GCGTGCGACC,1.16
17,GCGTGTCAAC,1.03
18,GCGTGTGGGA,1.05
19,GCGTTACAGC,0.963
20,GCGTTAGTT,1.03
21,GCGTTCCGTG,1.01
22,GCGTTCGCG,1.01
23,GCGTTCTGTT,0.992
24,GCGTTGAGAT,0.977
25,GCGTTTAGGC,1.05
26,GCGTTTGATC,0.995

row,Sequence,switch fluorescence ratio
1,GCTAAAGTTT,0.983
2,GCTAACCTCT,1.01
3,GCTAACGTAT,1.06
4,GCTAATCCCG,1.07
5,GCTAATGGTG,1.04
6,GCTACAACAG,1.04
7,GCTACAACGG,1.07
8,GCTACAAGGA,1.04
9,GCTACACACT,1.32
10,GCTACAGCGC,1.05
11,GCTACATTGT,0.961
12,GCTACGGATA,1.45
13,GCTACGTTGT,1.02
14,GCTAGAAGTG,1.01
15,GCTAGAGTA,1.01
16,GCTAGCCAAC,1.04
17,GCTAGCCGCA,1.08
18,GCTAGGAAAC,1
19,GCTAGGCCTG,1.02
20,GCTAGGTACT,1.04
21,GCTAGGTTAA,1.02
22,GCTAGGTTAT,0.985
23,GCTAGTAGTA,0.985
24,GCTAGTTCTC,0.969
25,GCTATAAGAG,1.02
26,GCTATCAACT,1.01

row,Sequence,switch fluorescence ratio
1,GCTATCCTGG,0.99
2,GCTATGATT,0.987
3,GCTATGGAAC,0.994
4,GCTATTATT,1.01
5,GCTCAAAGGA,0.992
6,GCTCAAGAAA,1.05
7,GCTCAAGCA,1.01
8,GCTCAAGTTG,0.988
9,GCTCAATTTT,1.02
10,GCTCACTTTA,1.11
11,GCTCAGCGCT,1.08
12,GCTCAGGGCC,1.01
13,GCTCAGGGGC,1.11
14,GCTCAGTGCG,1.03
15,GCTCATGAGT,0.966
16,GCTCATGCGT,1.06
17,GCTCATTGAG,1.01
18,GCTCCCACAT,1.57
19,GCTCCCTGAA,1.2
20,GCTCCGCGCA,5.11
21,GCTCCGTGCG,1.43
22,GCTCCTAAGA,1.08
23,GCTCCTCAA,3.85
24,GCTCCTCCC,1.78
25,GCTCCTTGCA,1.05
26,GCTCGAAATT,1.03

row,Sequence,switch fluorescence ratio
1,GCTCGATGTA,1.07
2,GCTCGTAATG,1.08
3,GCTCGTTATG,0.957
4,GCTCTCGACG,1.01
5,GCTCTCTC,0.999
6,GCTCTCTGAC,1.15
7,GCTCTCTTCC,1.78
8,GCTCTGCGAC,3.84
9,GCTCTGGCTC,1.04
10,GCTCTTGGTG,1.08
11,GCTGAACACT,1.01
12,GCTGACATAG,1
13,GCTGACTATG,1
14,GCTGATCGGT,0.969
15,GCTGCACCGG,1
16,GCTGCACTTT,1
17,GCTGCAGACC,1.09
18,GCTGCAGGAC,2.79
19,GCTGCATA,1.71
20,GCTGCCGCCG,1.06
21,GCTGCCGGGT,1.01
22,GCTGCGAGCA,0.98
23,GCTGCGCCAC,2.29
24,GCTGCGTTGA,1.07
25,GCTGGAAAGT,0.956
26,GCTGGAAATC,1.05

row,Sequence,switch fluorescence ratio
1,GCTGGACTG,1.03
2,GCTGGATTC,1.01
3,GCTGGCCGTA,1.08
4,GCTGGCTAGT,1
5,GCTGGCTATG,0.971
6,GCTGGGTGTT,1.14
7,GCTGTCAGGC,1.02
8,GCTGTCGTGT,1
9,GCTGTGGGTT,0.972
10,GCTGTTTCCT,1
11,GCTTAAATGA,1
12,GCTTAAGAAT,0.917
13,GCTTAATTCT,0.985
14,GCTTAGAGGT,0.994
15,GCTTAGTTTG,0.984
16,GCTTATCAAC,1.02
17,GCTTATTATC,0.983
18,GCTTATTTGG,0.993
19,GCTTCAAACT,0.981
